{"source": "PubChem BioAssay AID1347165", "about": "(National Center for Advancing Translational Sciences (NCATS), 2019)", "note": "Where “and” joins values, the source holds several entries; their conditions need not be identical. Equal entries are not always repeated. Out of some 220,000 compounds screened, about 5,700 (2.6%) were called active. Inconclusive means that the source gave no clear call. Such entries were picked first, then a sample of the others. Calls follow the shape of the dose curve; as a rule, active = well fitted inhibition curve with a large enough effect; inconclusive = small, poorly fitted or top-dose-only effect; inactive = no such curve, though single readings can be large or run the other way. Potencies beside an inconclusive call are fits to weak or partial responses and may not hold up. Potency is read from the fitted curve at half-maximal effect; tags tell the direction and shape of the fitted curve."}
{"biological_target": "Lysine-specific demethylase 5B (Homo sapiens) (UniProt Q9UGL1)", "sequence (Q9UGL1 whole entry, looked up)": "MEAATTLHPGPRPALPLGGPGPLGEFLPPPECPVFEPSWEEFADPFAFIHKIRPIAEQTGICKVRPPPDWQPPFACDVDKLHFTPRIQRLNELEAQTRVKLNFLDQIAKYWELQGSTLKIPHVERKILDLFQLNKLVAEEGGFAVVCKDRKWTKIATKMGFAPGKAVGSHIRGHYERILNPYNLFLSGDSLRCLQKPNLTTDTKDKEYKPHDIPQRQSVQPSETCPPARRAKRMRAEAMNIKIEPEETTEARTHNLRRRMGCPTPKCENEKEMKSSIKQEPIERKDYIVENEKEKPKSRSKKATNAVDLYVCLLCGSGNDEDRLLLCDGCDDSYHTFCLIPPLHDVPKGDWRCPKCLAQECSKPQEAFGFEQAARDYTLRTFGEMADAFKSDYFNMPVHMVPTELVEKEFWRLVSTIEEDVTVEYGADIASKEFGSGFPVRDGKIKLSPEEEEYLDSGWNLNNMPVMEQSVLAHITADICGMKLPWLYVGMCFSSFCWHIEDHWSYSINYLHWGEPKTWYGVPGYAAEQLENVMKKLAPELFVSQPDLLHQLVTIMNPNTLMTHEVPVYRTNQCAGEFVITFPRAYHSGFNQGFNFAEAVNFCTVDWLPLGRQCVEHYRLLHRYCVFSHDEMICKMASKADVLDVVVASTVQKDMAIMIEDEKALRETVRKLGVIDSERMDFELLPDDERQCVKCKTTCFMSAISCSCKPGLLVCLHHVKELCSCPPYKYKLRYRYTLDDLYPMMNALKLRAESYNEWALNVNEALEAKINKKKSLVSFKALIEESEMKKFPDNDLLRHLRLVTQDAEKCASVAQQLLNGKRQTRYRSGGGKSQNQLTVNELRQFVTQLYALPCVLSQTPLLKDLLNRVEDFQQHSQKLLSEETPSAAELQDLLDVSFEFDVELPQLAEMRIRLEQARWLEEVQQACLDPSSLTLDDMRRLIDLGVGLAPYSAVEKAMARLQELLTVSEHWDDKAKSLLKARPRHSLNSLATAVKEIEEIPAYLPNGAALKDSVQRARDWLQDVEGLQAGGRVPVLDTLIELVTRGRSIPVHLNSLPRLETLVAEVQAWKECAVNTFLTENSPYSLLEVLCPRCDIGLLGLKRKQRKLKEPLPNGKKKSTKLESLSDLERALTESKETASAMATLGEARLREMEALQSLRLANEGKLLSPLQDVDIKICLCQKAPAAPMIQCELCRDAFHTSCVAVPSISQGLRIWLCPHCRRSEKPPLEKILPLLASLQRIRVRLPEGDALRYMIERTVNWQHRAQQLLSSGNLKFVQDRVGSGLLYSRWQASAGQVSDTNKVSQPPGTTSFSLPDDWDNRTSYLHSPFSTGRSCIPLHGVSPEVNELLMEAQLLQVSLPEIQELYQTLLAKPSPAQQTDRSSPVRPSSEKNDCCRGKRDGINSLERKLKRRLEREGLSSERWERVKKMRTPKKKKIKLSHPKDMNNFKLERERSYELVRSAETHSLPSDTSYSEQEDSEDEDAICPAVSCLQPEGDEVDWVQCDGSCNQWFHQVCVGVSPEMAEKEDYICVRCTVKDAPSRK", "assay": "Primary screen for KDM5B Histone Demethylases FDH-coupled qHTS; also: nearly all actives have a fitted effect of over 70% in size; as to activity change, negative = inhibition: 0% is about no effect", "conditions": "FDH-coupled NADH fluorescence (FDH is formaldehyde dehydrogenase); activity change, negative = inhibition: at 57.7 µM (top of the series) unless noted", "from_the_text": "Assay Submitter (PI): Qin Yan, Ph.D. (Yale University) and Xiaodong Cheng, Ph.D. (MD Anderson) This project was funded as part of the NCI NEXT Program and Chemical Biology Consortium (CBC) The histone demethylases, KDM5A and KDM5B catalyze the demethylation of lysine 4 on histone H3 (H3K4me3/2). They are overexpressed in a variety of cancers and have been implicated in cancer cell growth, metastasis, drug resistance, and tumor growth. KDM5A is amplified and overexpressed in breast and gastric cancer; and is translocated in leukemia. While KDM5B is highly expressed in human mammary tumors and breast cancer cell lines, but not in normal adult breast tissue. Moreover, knockdown of KDM5B leads to upregulation of tumor suppressor genes, including BRCA1. The goal of this project is to employ qHTS to identify selective small molecule inhibitors of KDM5A/B demethylase activity to better understand the role of KDM5 in cancer and to develop novel therapies. We employed an FDH-coupled assay previously reported by Sakurai et al. to monitor in vitro KDM5 demethylase activity. Compounds showing dose response inhibition are re-acquired, validated, and tested for non-specific interference with the formaldehyde dehydrogenase (FDH) counterscreen. True inhibitors are validated using an AlphaLisa secondary screen, which employs an H3K4(me2-1)-specific antibody to monitor demethylation of a biotin-tagged H3K4(me3) peptide substrate. Inhibitors are profiled against KDM4A and KDM6A AlphaLisa counterscreens to determine level of demethylase specificity; and against the TruHits counterscreen to eliminate non-specific inhibitory activity on the AlphaLISA detection method. Selective inhibitors identified from the primary and secondary screening are tested in cells using immunofluorescence to monitor global H3K4 tri-methylation as a measure of KDM5A/B inhibition. Early Translation Branch (ETB) National Center for Advancing Translational Sciences (NCATS), Rockville, MD National Institute of Health (NIH), Bethesda, Maryland [1] Sakurai, M et al. A miniaturized screen for inhibitors of Jumonji histone demethylases. Mol Biosyst. 2010 Feb;6(2):357-64. doi: 10.1039/b912993f. Epub 2009 Oct 8.\nMaterials: 1536-well Black, solid bottom, medium binding assay plate is purchased from Greiner Bio-one. The enzymes (KDM5B) and substrate (H3K4me3/2) are provided by the principal investigators. The buffer for this assay is composed of 50mM HEPES at pH 7.5 with 0.01% Tween-20. FDH coupled Demethylase qHTS protocol: Three microliter enzyme mix (buffer + 200nM KDM5BDeltaAP final concentration) is dispensed into the assay plate using the BioRAPTR Flying Reagent Dispenser (FRD; […]). Compound (at various final concentration) and control solution is pin transferred to the assay plate using the Kalypsys 1536-pin tool apparatus. The assay plate is incubated for 10 min at room temperature followed by addition of 1uL substrate mix (buffer + 100uM ascorbic acid, 50uM ferrous ammonium sulfate, 12.5uM H3K4Me3, 25uM a-ketoglutarate, 0.25 mM NAD+, 0.25 U/mL formaldehyde dehydrogenase using the FRD yielding a total reaction volume of 4 uL. Initial fluorescence (Read1) is detected using the PerkinElmer ViewLux plate reader equipped with 340 nm excitation and 450 nm emission filters. The final fluorescence (Read2) signal is obtained after 30 min of room temperature incubation. Delta RFU is calculated (Read2 - Read1) and is used to generated dose response curves."}
{"smiles": "CCC1(N2CCN(S(=O)(=O)c3ccc4c(c3)CCCC4)CC2)CCN(C(=O)C(C)C)C1", "note": "(centres undefined)", "Potency": "inactive"}
{"smiles": "COc1ccc(C(=O)Nc2nc3c(s2)C[C@@H]2[C@](C)(CO)[C@H](O)CC[C@@]2(C)[C@@H]3CC(=O)NC2CCCC2)cc1", "Potency": "inconclusive: 28.2 µM [inhibitor, single point]"}
{"smiles": "COc1ccc(-n2nc3ccc(NC(=O)c4ccc(-c5cc(Cl)ccc5Cl)o4)cc3n2)cc1", "Potency": "inconclusive: 28.2 µM [inhibitor, partial curve, poor fit]"}
{"smiles": "CCOc1cc(-c2ccc(OC(=O)c3ccccc3F)cc2)cc(=O)c2c(C)oc(C)c12", "Potency": "inconclusive: 12.6 µM [inhibitor, partial curve, poor fit]"}
{"smiles": "Cc1ccccc1-c1nc(N2CCOCC2)cc2c1CN(c1ccccc1)C2=O", "Potency": "active: 35.5 µM"}
{"smiles": "Cc1cc(C)nc(NS(=O)(=O)c2ccc(NC(=O)COc3ccc(Cl)cc3C)cc2)n1", "Potency": "inconclusive: 0.708 µM [inhibitor, partial curve, poor fit]"}
{"smiles": "CCOc1ccc(C(=O)Nc2cc(-c3nc4ccccc4o3)ccc2C)cc1Cl", "activity change, negative = inhibition": "inconclusive: -34% [inhibitor]"}
{"smiles": "Cc1cccc(C(=O)NCc2nnc(SCC(=O)NCc3ccccc3)n2-c2ccccc2)c1", "Potency": "inconclusive: 1.12 µM [inhibitor, partial curve, poor fit]"}
{"smiles": "CCN(Cc1ccccc1)C(=O)c1c(C)oc2ncn(C)c(=O)c12", "Potency": "inconclusive: 39.8 µM [inhibitor, single point]"}
{"smiles": "N#Cc1nc(-c2ccccc2F)oc1NCc1ccccc1Cl", "Potency": "inconclusive: 25.1 µM [inhibitor, partial curve, poor fit]"}
{"smiles": "Cc1ccccc1-c1nc(C#N)c(N2CCC(C)CC2)o1", "Potency": "inconclusive: 35.5 µM [inhibitor, partial curve, poor fit]"}
{"smiles": "CN(CC(=O)Nc1ccccc1Br)C(=O)CCn1c(=O)oc2ccccc21", "Potency": "inactive"}
{"smiles": "O=C(COc1ccccc1)NC1CCCc2c1[nH]c1c(Cl)cccc21", "note": "(centres undefined)", "Potency": "inconclusive: 7.08 µM [inhibitor, partial curve]"}
{"smiles": "COc1ccc(-n2c(/C=C/c3ccccc3F)nc3cc(OC)c(OC)cc3c2=O)cc1Cl", "Potency": "inconclusive: 28.2 µM [inhibitor, partial curve, poor fit]"}
{"smiles": "COc1ccc([C@@H](NC(=O)c2ccc3cccc(F)c3n2)C2CC(O)C2)cn1", "note": "(some centres undefined)", "Potency": "active: 22.4 µM"}
{"smiles": "COc1ccc(-c2nc(N3CCOCC3)cc3c2CN(Cc2cnn(C)c2)C3=O)cc1OC", "Potency": "inactive"}
{"smiles": "Cc1ccc(-c2cc(C(F)(F)F)n3nc(C(=O)Nc4ccc(Cl)cc4Cl)cc3n2)cc1", "Potency": "inconclusive: 1.78 µM [inhibitor, full curve, poor fit]"}
{"smiles": "CC1CCCN(C(=O)Cc2cccn2-c2ccc(F)cc2)C1", "note": "(centres undefined)", "Potency": "inactive"}
{"smiles": "Cc1ccc(N2CC(NC(=O)/C=C\\c3ccc4c(c3)OCO4)CC2=O)cc1C", "note": "(centres undefined)", "Potency": "inconclusive: 31.6 µM [inhibitor, partial curve, poor fit]"}
{"smiles": "CCCn1nc(C(=O)OCCO)c2ccccc2c1=O", "Potency": "inactive"}
{"smiles": "O=[S+]([O-])(c1ccc(Cl)cc1)c1nnn2c1nc(NC1CCCC1)c1ccccc12", "Potency": "inconclusive: 2.82 µM [inhibitor, full curve, poor fit]"}
{"smiles": "Cc1cc(CNC(=O)c2ccncc2)c2[nH]c(-c3ccccc3)c(C)c2c1", "Potency": "inactive"}
{"smiles": "OCCC1CN(Cc2nc3ccccc3s2)CCN1Cc1ccc(F)c(F)c1", "note": "(centres undefined)", "Potency": "inconclusive: 39.8 µM [inhibitor, single point]"}
{"smiles": "Cc1ccc2nc(-c3ccsc3)c(Nc3ccccc3C)n2c1", "Potency": "inconclusive: 28.2 µM [inhibitor, partial curve, poor fit]"}
{"smiles": "COc1ccccc1/C=C/c1nc(C#N)c(N2CCCCC2)o1", "Potency": "inconclusive: 15.8 µM [inhibitor, partial curve, poor fit]"}
{"smiles": "CSCC(=O)N[C@H]1CCN2C(=O)c3cc(-c4ccccc4F)ccc3NC(=O)[C@H]12", "Potency": "inconclusive: 35.5 µM [inhibitor, partial curve, poor fit]"}
{"smiles": "COc1cccc(NC(=O)Nc2cc(C(=O)NCc3cccc(F)c3)ccc2N2CCOCC2)c1", "Potency": "inconclusive: 39.8 µM [inhibitor, single point]"}
{"smiles": "Cn1nnnc1-c1cccc(NS(=O)(=O)c2cc(C(F)(F)F)ccc2Cl)c1", "Potency": "inactive"}
{"smiles": "Cc1cc(C)c2c(=O)n(CC(=O)Nc3ccc(C)c(F)c3)c(=O)n(-c3ccccc3)c2n1", "Potency": "inactive"}
{"smiles": "c1ccc(-c2cnc3n[nH]c(-c4ccccc4)c3n2)cc1", "Potency": "inconclusive: 12.6 µM [inhibitor, full curve, poor fit]"}
{"smiles": "O=C1CC(c2cccc(O)c2)c2ncn(-c3ccccc3F)c2N1", "note": "(centres undefined)", "Potency": "inconclusive: 22.4 µM [inhibitor, partial curve, poor fit]"}
{"smiles": "CC(=O)c1cccc(NC(=O)O[C@@H]2CO[C@H]3[C@@H]2OC[C@@H]3NC(=S)Nc2cccc3ccccc23)c1", "Potency": "inconclusive: 15.8 µM [inhibitor, partial curve]"}
{"smiles": "CCOc1ccccc1C(=O)N[C@H](C(=O)O)C(C)C", "Potency": "inactive"}
{"smiles": "O=C(O)CCn1ncc2cc(OCC3CCN(C(=O)CCC(F)(F)F)CC3)ccc21", "Potency": "inactive"}
{"smiles": "COc1ccc(C(=O)N2C[C@@H](F)[C@@H](OCc3nc4ccc(F)cc4[nH]3)C2)cc1", "Potency": "inconclusive: 39.8 µM [inhibitor, single point]"}
{"smiles": "Nc1nccnc1C(=O)Nc1cccc(/C=C/c2ccccn2)c1", "Potency": "inconclusive: 25.1 µM [inhibitor, partial curve, poor fit]"}
{"smiles": "COCC(=O)Oc1c(Sc2ccc(C)cc2)c(C)nn1C(C)(C)C", "Potency": "inconclusive: 15.8 µM [inhibitor, partial curve, poor fit]"}
{"smiles": "COc1cc(-c2ccno2)ccc1S(=O)(=O)N1CCN(c2cc(C)ccc2C)CC1", "Potency": "inconclusive: 22.4 µM [inhibitor, single point] and inconclusive: 28.2 µM [inhibitor, partial curve, poor fit]"}
{"smiles": "CC(NC(=O)C1CCCc2ccccc21)c1cccc(Cl)c1", "note": "(centres undefined)", "Potency": "inactive"}
{"smiles": "CC(=O)N1CCCC2(C1)CN(C)c1ccc(C(=O)NCCOc3ccccc3)cc12", "note": "(centres undefined)", "Potency": "active: 31.6 µM"}
{"smiles": "CCCN(CC1CCOC1)C(=O)Nc1ccc(C)c(Cl)c1", "note": "(centres undefined)", "Potency": "inactive"}
{"smiles": "CC(C)c1ccc(S(=O)(=O)c2nnn3c2nc(NCCc2ccccc2)c2sccc23)cc1", "Potency": "inconclusive: 1.58 µM [inhibitor, partial curve, poor fit]"}
{"smiles": "C/C(=N\\NC(N)=O)c1ccc(Br)cc1", "Potency": "inactive"}
{"smiles": "CCCn1c(=O)c2sccc2n2c(CCCC(=O)NCCc3ccc(Cl)cc3)nnc12", "Potency": "inconclusive: 11.2 µM [inhibitor, partial curve, poor fit]"}
{"smiles": "CN(C(=O)C1CCCN(c2ncnc3c2nc2n3CCCCC2)C1)c1ccccc1F", "note": "(centres undefined)", "activity change, negative = inhibition": "inconclusive: -35.8% [inhibitor] [at 11.5 µM]"}
{"smiles": "CCOC(=O)c1ccc2c3c(cccc13)CC2", "Potency": "inconclusive: 25.1 µM [inhibitor, partial curve, poor fit]"}
{"smiles": "COc1cc(OC)c(NC(=O)CN2C(=O)CCn3nc(-c4cccn4C)cc32)cc1Cl", "Potency": "inconclusive: 25.1 µM [inhibitor, single point]"}
{"smiles": "COc1ccc(-c2onc(C)c2C(=O)NCCc2ccc(F)cc2)cc1", "Potency": "inconclusive: 35.5 µM [inhibitor, partial curve, poor fit]"}
{"smiles": "COc1cc(OC)cc(-c2nc(C3CC(=O)N(c4ccc(C)cc4)C3)no2)c1", "note": "(centres undefined)", "Potency": "active: 31.6 µM"}
{"smiles": "CC(=O)c1cc(Cl)cc(Cl)c1OCC(=O)N1CCN(C(=O)c2ccco2)CC1", "Potency": "inactive"}
{"smiles": "CCOc1ccc(/C=C/c2nc(C#N)c(N3CCN(c4ccc(OC)cc4)CC3)o2)cc1", "Potency": "inconclusive: 14.1 µM [inhibitor, partial curve, poor fit]"}
{"smiles": "CCCCNC(=O)c1ccccc1NC(=O)Cn1cnc2c1c(=O)n(C)c(=O)n2C", "Potency": "inactive"}
{"smiles": "c1ccc(-n2ncc3c(NC4CCCC4)ncnc32)cc1", "Potency": "inconclusive: 31.6 µM [inhibitor, partial curve, poor fit]"}
{"smiles": "Cc1cccc(C(=O)Nc2nnc(SCC(=O)NC3CC3)s2)c1", "Potency": "inconclusive: 31.6 µM [inhibitor, single point]"}
{"smiles": "O=C(C1CCCC1)N1CC2(CCCN(C3CCCCC3)C2)Cc2ccccc21", "note": "(centres undefined)", "Potency": "inconclusive: 70.8 µM [inhibitor, partial curve]"}
{"smiles": "COc1ccc(-c2nc(C3CC(=O)N(c4ccc(F)c(Cl)c4)C3)no2)cc1OC", "note": "(centres undefined)", "Potency": "active: 31.6 µM"}
{"smiles": "Oc1cc(-n2cccn2)c(O)cc1-n1cccn1", "Potency": "inconclusive: 39.8 µM [inhibitor, single point]"}
{"smiles": "Cc1ccc(Cn2c(=O)c3cccnc3n(CC(=O)Nc3cccc(C(F)(F)F)c3)c2=O)cc1", "Potency": "inconclusive: 25.1 µM [inhibitor, partial curve, poor fit]"}
{"smiles": "N#Cc1ccccc1NC(=O)C1(c2ccccc2)CCCC1", "Potency": "inactive"}
{"smiles": "CCn1ncc2c(C(=O)Nc3ccc(OC)c(OC(F)F)c3)cc(-c3cccs3)nc21", "Potency": "inactive"}
{"smiles": "Cc1ccc(-n2ncc3c(N4CCCCCC4)ncnc32)cc1", "Potency": "inconclusive: 20 µM [inhibitor, partial curve, poor fit]"}
{"smiles": "CSc1cccc(NC(=O)Cn2ccn3nc4c(c3c2=O)CCCCC4)c1", "Potency": "inconclusive: 39.8 µM [inhibitor, single point]"}
{"smiles": "COc1cc2oc(=O)c(CC(=O)NC3CCS(=O)(=O)C3)c(C)c2cc1Cl", "note": "(centres undefined)", "Potency": "inconclusive: 14.1 µM [inhibitor, partial curve, poor fit]"}
{"smiles": "COCCNC(=O)c1cc(C2CC2)nc2c1c(C1CCNCC1)nn2C", "Potency": "inconclusive: 56.2 µM [inhibitor, partial curve, poor fit]"}
